Results taken from PubChem BioAssay (Tox21).
Inconclusive results are not listed. Calls follow the shape of the dose curve; as a rule, active = well fitted curve in the direction sought with a large enough effect in the repeat runs; inconclusive = weak or mixed curves; inactive = no such curve, though single readings can be large; an effect the other way counts as inactive or inconclusive. Some structures have more than one record in an assay (separate samples or runs), and their calls can disagree. The source holds more than one record for some entries. The list is limited to them. The source may hold further records. Values that stand side by side repeat one measurement in other runs, samples, wells, individuals or studies. Records carry a tag for their origin. A, B and so on number the origins entry by entry.

Test: qHTS assay to identify small molecule antagonists of the androgen receptor (AR) signaling pathway using the MDA cell line - cell viability counter screen (AID 743041; also: nearly all actives have a fitted effect of over 45% in size)
Conditions: MDA-kb2 viability, CellTiter-Fluor, 16 h, cells co-treated with R1881 androgen agonist; series mostly up to 70.3 µM
Outline: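 Cells were plated at 3,000 per well and left 5 h. Compounds in DMSO were then pinned in, followed by R1881. After 16 h at 37C, CellTiter-Fluor fluorescence gave viability.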
Potency is read from the fitted curve at half-maximal effect.

| SMILES | Potency |
| --- | --- |
| CCOP(=O)(O)OCC (tested in a mixture with another compound) | inactive [sample A] and active: 54 µM [sample B] |
| Cn1c(-c2ccccc2)cc(-c2ccccc2)[n+]1C | inactive [sample A] and active: 19.3 µM [sample B] |
| N#Cc1nn(-c2c(Cl)cc(C(F)(F)F)cc2Cl)c(N)c1S(=O)C(F)(F)F (stereo unspecified) | inactive [sample A] and active: 61.5 µM [sample B] |

Test: qHTS assay to identify small molecule antagonists of the thyroid receptor (TR) signaling pathway (AID 743065); also: nearly all actives have a fitted effect of over 55% in size
Conditions: GH3.TRE-Luc, T3-stimulated luciferase inhibition, 23.5 h; series mostly up to 70.3 µM
Outline: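 Antagonism measured as loss of luciferase signal in GH3 cells stably carrying a TRE-luciferase reporter, co-treated with compound and T3 (1 nM final) for 23.5 h at 37 C. Viability was read in the same well by CellTiter-Fluor.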

| SMILES | Potency |
| --- | --- |
| COP(=S)(OC)Oc1ccc(S(=O)(=O)N(C)C)cc1 | inactive [sample A] and active: 68.6 µM [sample B] |
| CCOP(=O)(O)OCC (tested in a mixture with another compound) | inactive [sample A] and active: 3.41 µM [sample B] |
| CC(C)=CC1C(C(=O)OCN2C(=O)C3=C(CCCC3)C2=O)C1(C)C (stereo unspecified) | inactive [sample A] and active: 61.1 µM [sample B] |
| O=C(O)c1nn(Cc2ccc(Cl)cc2Cl)c2ccccc12 | inactive [sample A] and active: 48.2 µM [sample B] |
| Cc1ccc(N=CN(C)C=Nc2ccc(C)cc2C)c(C)c1 | inactive [sample A] and active: 61.4 µM [sample B] and active: 48.5 µM [sample C] |

Test: qHTS assay to identify small molecule antagonists of the peroxisome proliferator-activated receptor gamma (PPARg) signaling pathway - cell viability counter screen (AID 743194); also: nearly all actives have a fitted effect of over 55% in size
Conditions: PPARg-bla HEK293H viability, CellTiter-Glo luminescence, 17 h, co-treated with 50 nM rosiglitazone; series mostly up to 62.6 µM
Outline: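 Viability was measured as CellTiter-Glo luminescence in GeneBLAzer PPARg UAS-bla HEK293H cells. These cells had been exposed 17 h at 37 C to compounds together with rosiglitazone at 50 nM final, with the beta-lactamase readout taken in the same wells.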

| SMILES | Potency |
| --- | --- |
| CCOP(=O)(O)OCC (tested in a mixture with another compound) | inactive [sample A] and active: 6.86 µM [sample B] |
| CC(C)(c1ccccc1)c1ccc(O)cc1 | active: 54.5 µM [sample A] and inactive [sample B] |
| Oc1ccc(Cl)cc1Cc1ccccc1 | active: 49 µM [sample A] and inactive [sample B] |
| Cc1ccc(N=CN(C)C=Nc2ccc(C)cc2C)c(C)c1 | active: 43.8 µM [sample A] and inactive [sample B] |

Test: qHTS assay to identify small molecule agonists of the constitutive androstane receptor (CAR) signaling pathway - cell viability counter screen (AID 1224836); also: nearly all actives have a fitted effect of over 45% in size
Conditions: HepG2-CYP2B6-hCAR viability, CellTiter-Fluor, 23 h, PK11195 added to every well; series mostly up to 92.4 µM
Outline: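 HepG2 cells stably carrying hCAR and a CYP2B6-2.2kb reporter; 15-concentration compounds plus PK11195 (final 0.75 uM), 23 hr at 37 C/5% CO2. Viability read by CellTiter-Fluor fluorescence.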

| SMILES | Potency |
| --- | --- |
| CCOP(=O)(O)OCC (tested in a mixture with another compound) | inactive [sample A] and active: 24.1 µM [sample B] |
| CC(C)Nc1ccc(Nc2ccccc2)cc1 | active: 68.3 µM [sample A] and inactive [sample B] |
| N#Cc1nn(-c2c(Cl)cc(C(F)(F)F)cc2Cl)c(N)c1S(=O)C(F)(F)F (stereo unspecified) | active: 34.6 µM [sample A] and inactive [sample B] |

Test: A CellTox Green Cytotoxicity Assay to monitor cytotoxicity in HEK293 cells - 24 hour (AID 1224875); also: nearly all actives have a fitted effect of over 45% in size
Conditions: CellTox Green fluorescence; series mostly up to 76.8 µM
Outline: (§1)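 Nonlytic real-time cytotoxicity: HEK293 + CellTox Green reagent plated, 5 h preincubation, pintool compound addition (23 nL in DMSO), 37 C for 40 h, fluorescence measured at successive time points.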

| SMILES | Potency |
| --- | --- |
| C[C@]12CCC(=O)C=C1CC[C@@H]1[C@@H]2CC[C@@]2(C)[C@H]1CC[C@]2(C)O | active: 44 µM [sample A] and inactive [sample B] |
| CCOP(=O)(O)OCC (tested in a mixture with another compound) | inactive [sample A] and active: 34.4 µM [sample B] |
| CCCCCCCCCCCCCl | inactive [sample A] and active: 19.5 µM [sample B] |
| OC(c1ccc(Cl)cc1)(c1cncnc1)c1ccccc1Cl (stereo unspecified) | active: 35.3 µM [sample A] and inactive [sample B] |
| CCCCOCC1CO1 (stereo unspecified) | inactive [sample A] and active: 19.5 µM [sample B] |
| CCCCCCCCCc1ccc(O)cc1 | active: 39.3 µM [sample A] and inactive [sample B] |

Test: A CellTox Green Cytotoxicity Assay to monitor cytotoxicity in HEK293 cells - 16 hour (AID 1224888); also: nearly all actives have a fitted effect of over 35% in size
Conditions: CellTox Green fluorescence; series mostly up to 76.8 µM
Outline: as §1

| SMILES | Potency |
| --- | --- |
| C[C@]12CCC(=O)C=C1CC[C@@H]1[C@@H]2CC[C@@]2(C)[C@H]1CC[C@]2(C)O | active: 44 µM [sample A] and inactive [sample B] |
| CCOP(=O)(O)OCC (tested in a mixture with another compound) | inactive [sample A] and active: 48.6 µM [sample B] |
| CCCCCCCCCCCCCl | inactive [sample A] and active: 19.5 µM [sample B] |
| OC(c1ccc(Cl)cc1)(c1cncnc1)c1ccccc1Cl (stereo unspecified) | active: 44.4 µM [sample A] and inactive [sample B] |
| CCCCOCC1CO1 (stereo unspecified) | inactive [sample A] and active: 19.5 µM [sample B] |
